According to PubChem BioAssay AID686978 (National Center for Advancing Translational Sciences (NCATS), 2013):
Values joined by “and” are separate entries in the source; they are usually repeats but may differ in a detail not shown here. Equal values may be shown once. Screen size: about 420,000 compounds; about 64,000 (15%) were called active. Inconclusive means that the source gave no clear call. Such entries were picked first, then a sample of the others. Calls come from the whole dose curve; as a rule, active = well fitted inhibition curve with a large enough effect; inconclusive = small, poorly fitted or top-dose-only effect; inactive = flat fitted curve, though single readings scatter. A potency beside an inconclusive call is a rough fit, not a confirmed value.

Assay: qHTS for Inhibitors of human tyrosyl-DNA phosphodiesterase 1 (TDP1): qHTS in cells in absence of CPT; note: nearly all actives have a fitted effect of over 55% in size
Settings: DT40 Tdp1-/- hTDP1 cells, no CPT, ATP luminescence, 48 h; activity change, negative = growth inhibition: at 46.2 µM (top of the series) unless noted
Summary of the method: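 Camptothecin absent (DMSO only). Human TDP1-complemented DT40 knockout cells, 400 cells/well, 37 °C for minimum 48 hr; ATP measured via CellTiter-Glo, 30 min dark incubation, luminescence.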
% is set by controls: 0 for no effect and ±100 for the full control effect; potency is the fitted concentration of half-maximal effect; tags give direction and shape of the fitted curve.

Row | SMILES | activity change, negative = growth inhibition | Potency
1 | O=C(O)Cn1cc2c(n1)CCCCC2 | inconclusive: -8.51% [inhibitor] | 
2 | CCCCN(C(=O)c1ccc(S(=O)(=O)N2CCC(C)CC2)cc1)C1CCS(=O)(=O)C1 (centres undefined) |  | inconclusive: 29.1 µM [inhibitor, single point]
3 | N/C(=N\OC(=O)c1ccc2c(c1)OCO2)c1cccnc1 |  | inactive
4 | CNC(=S)N/N=C/c1c(C)nn(-c2ccccc2)c1Cl |  | inactive
5 | O=C(Oc1cccc(Nc2ncnc3ccccc23)c1)c1ccccc1Cl |  | inconclusive: 29.1 µM [inhibitor, single point]
6 | COc1ccc(C(=O)Nc2cnc(NC(=O)c3cccs3)cc2C)cc1 | inconclusive: -29.9% [inhibitor] | 
7 | Cn1nc(-c2ccc(Cl)cc2)c2cc(C(=O)NCCCN3CCOCC3)sc21 |  | active: 18.4 µM
8 | COc1ncc2ncc(=O)n(C3CC3)c2n1 |  | inconclusive: 2.91 µM [inhibitor, full curve, poor fit]
9 | Cc1sc2nc(C3CC3)nc(SCC(=O)N3c4ccccc4CC3C)c2c1C (centres undefined) |  | active: 20.6 µM
10 | CCOC(=O)C1CCN(c2c(Nc3ccc(C)c(C)c3)c(=O)c2=O)CC1 |  | inactive
11 | O=C(O)c1cccc(N/N=C/c2cn(-c3ccccc3)nc2-c2cccs2)c1 |  | inactive
12 | CCCN1CCc2c(sc(NC(=O)C3CCN(S(=O)(=O)c4cccs4)CC3)c2C(N)=O)C1 |  | inconclusive: 20.6 µM [inhibitor, single point]
13 | O=C(OCCOCCN=C1NS(=O)(=O)c2ccccc21)c1ccccc1 |  | inactive
14 | CCNC(=S)Nc1nc2c(cc1C(=O)OCC)CCCC2 |  | inconclusive: 23.1 µM [inhibitor, single point]
15 | COc1ccc(C2CC(c3c(-c4ccccc4)c4cc(Cl)ccc4[nH]c3=O)=NN2S(C)(=O)=O)cc1 (centres undefined) |  | inconclusive: 23.1 µM [inhibitor, single point]
16 | CN(C)S(=O)(=O)c1ccc2c(c1)nnn2CCNC(=O)Nc1ccc(Cl)cc1 |  | inactive
17 | CC(C)c1cc(C(=O)N2CCCC(CCC(=O)NCc3ccccc3F)C2)n(C)n1 (centres undefined) |  | active: 13 µM
18 | O=C(CN1CCN(c2ccc(Cl)cc2)CC1)c1ccc2c(c1)OCO2 |  | inconclusive: 10.3 µM [inhibitor, partial curve]
19 | Cc1ccc(C)c(Oc2nc3c(c(=O)n(C)c(=O)n3C)n2Cc2ccccc2)c1 |  | inconclusive: 23.1 µM [inhibitor, single point]
20 | O=C(Nc1cccc(Cl)c1)c1ccc(NCC2CCCO2)c([N+](=O)[O-])c1 (centres undefined) | inconclusive: -29.9% [inhibitor] | 
21 | Cc1ccc(C(=O)C(c2ccccc2)N2Cc3ccccc3C2=N)cc1 (centres undefined) |  | active: 8.2 µM
22 | O=[N+]([O-])c1cccc2ccc(/C=C/c3cccc(Br)c3)nc12 |  | inconclusive: 29.1 µM [inhibitor, single point]
23 | CCc1nc2ccccc2n1CC(=O)NC1CCS(=O)(=O)C1 (centres undefined) |  | inactive

Row | SMILES | activity change, negative = growth inhibition | Potency
24 | C[C@H](CO)N1C[C@H](C)[C@@H](CN(C)Cc2cccc(F)c2)Oc2cc(-c3cccc(C#N)c3)ccc2S1(=O)=O |  | active: 23.1 µM
25 | Nc1nc(-c2ccccc2)c(CCCOc2ccc([N+](=O)[O-])cc2)c(=O)[nH]1 |  | inconclusive: 16.4 µM [inhibitor, single point]
26 | CC1(S(=O)(=O)O)CC(=O)c2ccccc2C1=O (centres undefined) |  | active: 13.3 µM and active: 5.17 µM
27 | Cc1ccc(/C=C/C(=O)Nc2cccc3ncccc23)o1 |  | inconclusive: 20.6 µM [inhibitor, single point]
28 | Cc1ccc(Cc2cn3cc(-c4ccccc4)nc3s2)cc1 |  | inactive
29 | CC(=O)N1CCN(C(=O)CNC(=O)c2ccc(Br)o2)CC1 |  | inactive
30 | COc1cccc(C=CC(=O)C=CC=Cc2ccccc2)c1 |  | inconclusive: 18.4 µM [inhibitor, single point]
31 | COc1ccccc1/C=C/C=N/NC(=O)c1cc(-c2ccc(C)o2)[nH]n1 |  | inconclusive: 29.1 µM [inhibitor, single point]
32 | Clc1ccc(Oc2nc3ccccc3n3cccc23)cc1 |  | inactive
33 | COCCc1nn2c(=O)cc(COC(=O)c3ccccc3C)nc2s1 |  | inactive
34 | O=C(CSc1n[nH]c(-c2cccnc2)n1)Nc1ccc(Cl)cc1 |  | inactive
35 | CCCNc1sc(S(=O)(=O)CCC)nc1S(=O)(=O)c1ccc(C)cc1 |  | inconclusive: 18.4 µM [inhibitor, partial curve, poor fit]
36 | O=C(Nc1ccc(Cl)cc1N1CCOCC1)C1CCCO1 (centres undefined) |  | inactive
37 | CCOC(=O)N=Nc1c(O)n(Cc2ccccc2)c2ccccc12 |  | inconclusive: 23.1 µM [inhibitor, single point]
38 | O=C1c2ccccc2NC(c2c(Cl)cccc2Cl)N1Cc1ccccc1 (centres undefined) |  | active: 18.4 µM
39 | CCOC(=O)c1[nH]c2c(c1Cc1ccccc1OC)C(=O)CC(c1ccccc1)C2 (centres undefined) |  | inconclusive: 23.1 µM [inhibitor, single point]
40 | CCCCn1c(=O)c2oc3ccccc3c2n(Cc2ccccc2C)c1=O |  | inconclusive: 29.1 µM [inhibitor, single point]
41 | COc1ccc(C(=O)C(CN2CCOCC2)c2ccccc2)cc1F (centres undefined) |  | active: 2.59 µM
42 | CC1CC(C)CN(CC(=O)NC(c2ccccc2)c2ccccc2)C1 (centres undefined) |  | inconclusive: 29.1 µM [inhibitor, single point]
43 | COc1ccc(NC(=O)C(c2ccnc3ccccc23)n2c(=O)c(-c3ccco3)nc3ccccc32)cc1 (centres undefined) |  | inconclusive: 18.4 µM [inhibitor, single point]
44 | O=C(COc1ccc(F)cc1)Nc1ccccc1C(=O)OCc1cc(=O)n2ccsc2n1 |  | inactive
45 | CC(NC(=O)Nc1cccc(Cl)c1)C(c1cccs1)N1CCCC1 (centres undefined) |  | inconclusive: 29.1 µM [inhibitor, single point]
46 | Cc1cccc(OCC(=O)Nc2sc3c(c2C#N)CCC3)c1 |  | inconclusive: 16.4 µM [inhibitor, partial curve, poor fit]

Row | SMILES | activity change, negative = growth inhibition | Potency
47 | COc1ccc(CC(C)N2CCN(c3ccccc3OC)CC2)cc1OC (centres undefined) |  | inconclusive: 11.6 µM [inhibitor, partial curve]
48 | COCCCNC(=O)C[C@@H]1C[C@@]2(C(=O)OC)CCCCC=C2N(Cc2ccccc2)C1=O |  | inactive
49 | COc1ccccc1N(C)S(=O)(=O)c1ccc(C(=O)OCC(=O)N2CCC2)cc1 |  | inconclusive: 29.1 µM [inhibitor, single point]
50 | Nn1c(SCc2ccc(C(=O)O)cc2)nnc1-c1ccc(Cl)cc1Cl |  | inactive
51 | COc1cc(NC(=O)C2=CC(c3ccco3)=NS(=O)(=O)N2C)cc(OC)c1OC |  | inconclusive: 23.1 µM [inhibitor, partial curve, poor fit] and inconclusive: 29.1 µM [inhibitor, single point]
52 | CC1CCN(CC(O)Cn2c3ccccc3c3ccccc32)CC1 (centres undefined) |  | inconclusive: 25.9 µM [inhibitor, single point]
53 | COC(=O)c1cc(NC(=O)N2c3ccccc3Sc3ccccc32)cc(C(=O)OC)c1 |  | inconclusive: 9.2 µM [inhibitor, partial curve, poor fit]
54 | CC12COC3(C(=O)Nc4ccc(F)cc4)CC1CCC32C (centres undefined) |  | inconclusive: 13 µM [inhibitor, partial curve, poor fit]
55 | COc1cccc(CNC(=S)Nc2ccc3c(c2)c(=O)n(C)n3Cc2ccccc2)c1 |  | inconclusive: 18.4 µM [inhibitor, single point]
56 | NC(=O)CSc1nc2sc(-c3ccccc3)cc2c(=O)n1N |  | inconclusive: 14.6 µM [inhibitor, partial curve]
57 | Cc1nnc(SCC(=O)N/N=C/c2cn(-c3ccccc3)nc2-c2ccccc2)n1-c1ccccc1 |  | inconclusive: 29.1 µM [inhibitor, single point]
58 | COc1cccc(CC(=NO)c2cccc(OC)c2)c1 |  | inconclusive: 29.1 µM [inhibitor, single point]
59 | Cn1nc(CC(=O)Nc2ncc(Br)s2)c2ccccc2c1=O |  | inconclusive: 9.2 µM [inhibitor, partial curve, poor fit]
60 | COc1cc(Cl)c(C)cc1NC(=O)CSC1=NCCS1 |  | inconclusive: 29.1 µM [inhibitor, single point]
61 | Cc1nc2ccccc2c2oc(C(=O)NCC3COc4ccccc4O3)cc12 (centres undefined) |  | active: 11.6 µM
62 | O=C(Cc1cccc([N+](=O)[O-])c1)Nc1ccc(C(=O)N2CCCCC2)cc1 |  | inconclusive: 11.6 µM [inhibitor, single point]
63 | CN(c1ccccc1)S(=O)(=O)c1ccc(C(=O)NCc2ccccc2F)cc1 |  | inconclusive: 8.2 µM [inhibitor, partial curve]
64 | CCc1ccccc1S(=O)(=O)c1c(C)cc(C)nc1Cl |  | inactive
65 | CC(=O)Nc1cc(-c2cccc(C(=O)NCCN(C)C)c2)cn2c(-c3ccccc3)cnc12 |  | inconclusive: 23.1 µM [inhibitor, single point]
66 | CC(=O)N1CCN(C(=O)CN2C(=O)NC(C)(c3ccc4ccccc4c3)C2=O)CC1 (centres undefined) |  | inconclusive: 29.1 µM [inhibitor, single point]
67 | N/C(=N\N=C/c1ccc(Br)cc1)N/N=C\c1ccc(Br)cc1 |  | inconclusive: 29.1 µM [inhibitor, single point]
68 | O=S(=O)(c1ccc2nc(N3CCN(c4ccc(F)cc4)CC3)ccc2c1)N1CCCCC1 |  | inconclusive: 8.2 µM [inhibitor, partial curve]
69 | CCC(C)C(NC(=O)c1ccccc1)C(=O)N1CCN(C(=O)c2ccccc2)CC1 (centres undefined) |  | inconclusive: 29.1 µM [inhibitor, partial curve, poor fit]
